Reference: ChEMBL document CHEMBL4888484, “Replenishing the malaria drug discovery pipeline: Screening and hit evaluation of the MMV Hit Generation Library 1 (HGL1) against asexual blood stage Plasmodium falciparum ,using a nano luciferase reporter read-out” (2022)
In all, about 150,000 compounds went through this assay and about 540 (0.36%) showed an effect of 50% or more. The list shows a part of the results.

test system: Plasmodium falciparum; assay: Primary screen in NF54 nanoGlo assay, in single point, at 2uM, 72h; a lower Z score goes with more inhibition; type: functional, Erythrocyte; conditions: timepoint 72 hour

SMILES	% Inhibition	Z score
CCc1onc(C)c1NC(=O)NCC(C)(C)C(C)C	5%	-0.91
O=S(=O)(N1CCCOCC1)N1CCC[C@H](n2ccnn2)CC1	-3%	0.5
CC(C)[C@@H](C)CC(=O)Nc1ncccc1O	-1%	0.09
O=C1[C@@H](n2nc3ccccn3c2=O)CCN1CC(F)(F)F	4%	-0.59
O=C(NCC(=O)N(Cc1ccco1)C1(C(=O)NC2CCCC2)CCCCC1)c1ccccc1	15%	-2.34
Cc1ccc2nc(N3CCC[C@H](O)C3)c(CN3CCN(C)CC3)cc2c1	-17%	2
CN(CC(=O)N1CCc2ccccc21)C1C2CCOC2C1(C)C (stereo unspecified)	5%	-0.73
CN(Cc1ccccn1)Cc1ccnn1C	-14%	1.55
CC1CCN(c2nc3c(c(Oc4ccc(F)cc4)n2)CN(S(=O)(=O)c2ccc(F)cc2)CC3)CC1	-4%	0.7
CCOc1ccc(-c2c(C)n[nH]c2NC(=O)[C@H]2CCCN(S(=O)(=O)N3CCCC3)C2)cc1OCC	3%	-0.49
COc1ccc(Cc2n[nH]c3c2CN(Cc2ccc(CO)o2)CC3)cc1	-24%	2.07
CC(C)N1CC[C@H](NCc2cnc(N3CCOCC3)nc2)C1	3%	-0.43
CC(C)C[C@@H]1NC(=O)[C@H](Cc2c[nH]c3ccccc23)NC1=O	2%	-0.31
COCCn1cnc2c(-c3ccccc3)cn(CC(=O)Nc3ccc(C(C)C)cc3)c2c1=O	-6%	0.92
Cc1nnsc1CN(C)C[C@@H]1[C@H]2CN(C(=O)N3CCOCC3)C[C@@H]12	-11%	2
O=C(NC1CCCCC1O)C1=CCCC1 (stereo unspecified)	-21%	2.13
Brc1ccc(C2(c3nc(-c4cnccn4)no3)CCOCC2)cc1	-10%	1.55
CC(C)CN1CC[C@H](N2CCN(c3ccccc3F)CC2)[C@H](CCC(=O)O)C1	7%	-1.03
CCC(C)(C)NC(=O)c1cc(Cl)ccc1Cl	-13%	2.08
C[C@@H](CN1CCCCC1)NC(=O)Nc1nc(C(F)(F)F)cs1	33%	-4.26
COc1ccc(C2=NN(C(=O)CN3CCC4(CC3)OCCO4)[C@H](c3ccc(C)cc3C)C2)cc1	-5%	0.71

SMILES	% Inhibition	Z score
CN1CC[C@H](N(C)C(=O)Nc2cccc(-c3cscn3)c2)C1	-2%	0.41
NC1(c2ccccc2F)Cc2ccccc2C1	2%	-0.24
Nc1cc(C(=O)N2CCOCC2)ccc1Nc1ccccc1	-6%	0.76
Cc1nc(CNC(=O)NCC(C)(C)C(C)C)no1	-11%	1.14
Cc1ccc(NC(=O)c2ccoc2C2(O)CCOCC2)c(C)n1	-11%	1.8
O=C(NCc1ccc(S(=O)(=O)N2CCOCC2)s1)C1CC2CCC1C2 (stereo unspecified)	-15%	2.74
COC(=O)C(C)(C)[C@H]1CCCN(C(=O)Cc2ccn[nH]2)C1	0%	-0.02
COc1cccc(-c2nc3c(cnn3Cc3cccc(Cl)c3)[nH]2)c1O	-10%	1.41
Cc1cc(N2CCc3ccccc3C2)n2nc(-c3ccco3)nc2n1	-10%	1.14
Cc1noc(C)c1CN[C@H](c1cccs1)C(C)(C)C	0%	-0.05
Cc1n[nH]cc1CN[C@H](c1nccn1C)C1CC1	-19%	2.8
C#CCNC(=O)c1cc(Br)ccc1F	-16%	1.49
CCNC(=O)N1CCN(c2nc(-c3ccncc3)nc(C)c2C)CC1	-11%	1.37
Cc1cc(C)c2c(c1)C(NC1CCOC(C3CC3)C1)CCCO2 (stereo unspecified)	14%	-1.94
O=C(NCCc1c[nH]cn1)Nc1cccc2c1CCCC2	-2%	0.29
Cn1nccc1S(=O)(=O)NC[C@@H]1C[C@H]1C1CCCCC1	-3%	0.52
Cc1ccc([C@@H]2CC(c3cccn3C)=NN2C(=O)CN(CCN2CCOCC2)C(=O)c2ccccc2F)cc1	-5%	0.82
COc1ccc2c(c1)C(N1CCCN(C(=O)c3ccc(Cl)cc3)CC1)=Nc1ccccc1O2	-7%	1.14
CCN1CC(C(=O)NC(C)c2cc3cc(Cl)ccc3o2)CC1=O (stereo unspecified)	3%	-0.59
CN1CCN(c2cnn(Cc3c(F)cccc3C(F)(F)F)c(=O)c2)CC1	-16%	1.76
Fc1cnccc1NCCCOC1CCCC1	-3%	0.37

SMILES	% Inhibition	Z score
CCOc1ccc(N(CC(=O)N2CC(=O)Nc3ccccc32)S(C)(=O)=O)cc1	-14%	2.53
O=C1C[C@H](C(=O)N2CCC3(CCC(=O)N(Cc4ccco4)C3)CC2)CN1	-5%	0.88
COCc1cccc(CNCc2cnc(-c3ccccc3)s2)c1	-3%	0.41
C[C@H](NS(=O)(=O)CCNS(=O)(=O)c1ccccc1)c1cccc(Br)c1	19%	-1.7
CC(C)[C@H](NC(=O)NCC(F)(F)F)C(=O)N1CCCC1	-2%	0.23
Cc1ccc(NC(=O)Nc2cccc(CCc3nc4ccccc4n3C)c2)c(C)c1	0%	0.07
CN1CCC[C@H](NC(=O)c2coc(COc3cccc4cccnc34)n2)C1	1%	-0.18
CN(C)C[C@]1(O)CCCN(Cc2nc3c(s2)CCCC3)C1	-9%	1.26
COc1cccc(CNC(=O)c2cccc(-n3c(C)nc4cccnc43)c2C)c1	4%	-0.6
COc1cc(NC(=O)c2ccccc2)c(OC)cc1NC(=O)NCC1(N2CCOCC2)CCCCC1	-5%	0.6
COCCC1CCN(C(=O)CN(C)C(=O)Cc2ccc(F)cc2)CC1	-6%	1.17
CC(=O)N1CCC(N[C@H]2CCCc3c2cnn3-c2ccc(C(C)(C)C)cc2)CC1	6%	-0.87
COCCN1C(=O)C[C@](CC(=O)N2CCC(Oc3ccccc3OC)CC2)(c2ccccc2F)C1=O	6%	-0.79
Cc1ccc2c(c1)Oc1ccc(S(=O)(=O)N(C)c3ccccc3C)cc1C(=O)N2	-22%	3.11
Cc1cc(C(=O)N[C@H]2CC3(CCCC3)Oc3ccccc32)nc(C)n1	0%	0.01
COCc1nn(CC(=O)NC(C)C)c(=O)n1-c1ccc2c(c1)OCO2	-4%	0.69
Cc1cnc(NC(=O)NCC2CCCC(CNC(=O)Nc3ncc(C)s3)C2)s1 (stereo unspecified)	2%	-0.33
COCCNC1=Nc2ncccc2NC12CCN(C(=O)COc1ccccc1C)CC2	29%	-3.23
CCOC[C@H]1CCCN1C(=O)Cn1nnnc1N	-3%	0.44
Cc1c(C(=O)N2CCCC[C@H](N)C2)n(C)c2c(C)cccc12	-10%	1.71
CCN(C(=O)c1cccc(-c2ccc3c(c2)OCO3)c1)[C@H]1COC[C@@H]1O	-6%	0.54

SMILES	% Inhibition	Z score
COCCc1noc([C@H](C)NC(=O)Nc2cccc(-c3csc(C)n3)c2)n1	-8%	1.48
O=C(c1cscn1)N1CC[C@@]2(CCCN(CC3CCCCC3)C2=O)C1	-23%	2.01
CCOc1ccc(C(=O)N2CCC(S(=O)(=O)c3ccc(F)cc3)CC2)cc1OCC	-1%	0.22
CN1CCC(N2CCC(Oc3cncc(Br)c3)C2)C1=O (stereo unspecified)	-16%	1.76
O=C(Nc1cccc(C#Cc2ccccn2)c1)N[C@H]1CC[C@@H](C(=O)O)C1	5%	-0.52
Cn1nc(-c2ccc(C(=O)N3CCCCCC3)cc2)nc1N1CCOCC1	-3%	0.33
CCN(CC)CC(=O)NC(=O)Nc1ccccc1	-1%	0.2
CCN1CCN(c2cc3c(cc2S(=O)(=O)N2CCC(C)CC2)C(=O)Nc2cc(C)ccc2O3)CC1	0%	-0.06
COc1ccc(S(=O)(=O)N2C[C@@H](F)C[C@H]2CNC(C)=O)c2c1CCCC2	-5%	0.81
O=C(Nc1ccc2c(c1)OCCCO2)[C@@H]1CCCN1C(=O)c1ccco1	-7%	1.06
O=C(NC[C@H]1CCCC1=O)c1cc(F)c[nH]1	5%	-0.59
CC(C)(C(=O)N1CCC[C@H](c2nccn2CC(N)=O)C1)c1ccccc1	-8%	0.93
COc1ncccc1NC(=O)[C@@H]1COc2ccccc2O1	8%	-1.01
Cc1ccc(C(=O)N2CC[C@H]3N(C)S(=O)(=O)CC[C@]3(C(=O)N3CCCC3)C2)s1	-12%	1.75
Cc1cc(C)n(CCCNCc2cc3ccc(F)cc3n(CC(C)C)c2=O)n1	-4%	0.69
NCc1cc(C(=O)N(CCC2CC2)CC2CC2)ccn1	-23%	2.48
COc1ccc2c(c1)Oc1ccccc1N=C2N1CCN(C(=O)c2ccc(Cl)cc2)[C@@H](C)C1	0%	0.02
COc1ccc(CN2C(=O)COC[C@H]2C(=O)Nc2ccccc2F)cc1OC	0%	0.05
CCN1C[C@@H](CN(C)C(=O)c2ccc(-c3ccc(C)nc3N)cc2)CC1=O	-9%	1.24
CC(C)c1nnc([C@@H]2CC3(CN(C(=O)c4cnccn4)C3)CN2C)o1	-6%	0.67
